# Measured values reported in PMC4336329 (PLoS ONE, 2015).
# Among all 310,000 compounds or so, about 14,000 (4.5%) showed an effect of 50% or more. The effect is printed as a negative number. This is one part of the list.
# Molecular target: human ether-à-go-go-related gene (hERG) potassium channel (human, UniProt Q12809)
# Test: primary screen, population patch clamp on CHO cells stably expressing hERG
# 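Also: peak tail current of the secondary pulse compared with the same well before compound.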
# Sequence of human ether-à-go-go-related gene (hERG) potassium channel (Q12809 whole entry, looked up): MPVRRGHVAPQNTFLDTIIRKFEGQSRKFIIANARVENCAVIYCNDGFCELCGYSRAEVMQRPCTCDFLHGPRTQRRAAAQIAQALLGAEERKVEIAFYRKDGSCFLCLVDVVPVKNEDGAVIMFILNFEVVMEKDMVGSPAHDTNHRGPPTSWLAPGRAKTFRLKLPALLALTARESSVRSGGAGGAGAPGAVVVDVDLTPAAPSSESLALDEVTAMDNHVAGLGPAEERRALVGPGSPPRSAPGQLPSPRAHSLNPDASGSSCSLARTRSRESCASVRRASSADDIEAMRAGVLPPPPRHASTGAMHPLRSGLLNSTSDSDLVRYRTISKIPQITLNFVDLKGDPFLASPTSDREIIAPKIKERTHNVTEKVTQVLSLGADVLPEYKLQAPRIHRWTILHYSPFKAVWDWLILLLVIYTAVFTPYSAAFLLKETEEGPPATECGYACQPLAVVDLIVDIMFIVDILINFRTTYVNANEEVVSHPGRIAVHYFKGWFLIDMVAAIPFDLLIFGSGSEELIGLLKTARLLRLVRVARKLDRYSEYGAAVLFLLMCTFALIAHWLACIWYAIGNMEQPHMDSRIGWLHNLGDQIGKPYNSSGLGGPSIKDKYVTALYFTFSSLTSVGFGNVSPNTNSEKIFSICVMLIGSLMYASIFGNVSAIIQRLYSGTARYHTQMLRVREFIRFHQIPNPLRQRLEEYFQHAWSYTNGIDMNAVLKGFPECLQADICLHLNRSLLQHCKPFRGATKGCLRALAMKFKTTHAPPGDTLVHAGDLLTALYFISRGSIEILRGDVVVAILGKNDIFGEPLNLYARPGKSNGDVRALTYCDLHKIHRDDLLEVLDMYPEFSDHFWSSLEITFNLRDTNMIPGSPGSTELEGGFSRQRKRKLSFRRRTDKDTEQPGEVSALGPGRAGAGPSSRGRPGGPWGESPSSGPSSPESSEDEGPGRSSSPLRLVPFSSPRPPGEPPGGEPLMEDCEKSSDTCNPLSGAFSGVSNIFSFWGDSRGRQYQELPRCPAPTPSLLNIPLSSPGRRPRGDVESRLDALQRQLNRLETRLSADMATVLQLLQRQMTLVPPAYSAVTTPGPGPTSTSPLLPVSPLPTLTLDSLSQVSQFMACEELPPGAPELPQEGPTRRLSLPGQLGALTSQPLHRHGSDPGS
row,Compound,"hERG current change (%, negative = inhibition) at 10uM"
1,CCN1CCN(C(=O)C2=CC(c3ccc(C)cc3)=NS(=O)(=O)N2C)CC1,-4.11%
2,CN1CCN(NS(=O)(=O)c2cccs2)CC1,-5.96%
3,Cc1ccccc1-n1nnnc1SC(C)C(=O)Nc1ccc(N2CCN(C)CC2)cc1 (centres unmarked),-25.4%
4,CCOC(=O)C1CCCN(S(=O)(=O)c2ccc(OC)c3ccccc23)C1 (centres unmarked),-3.17%
5,COc1ccc(-c2nnc3sc(-c4ccccn4)nn23)cc1,-13.2%
6,CC(=O)Nc1cccc(C(=O)NNC(=O)c2ccccc2-n2cccc2)c1,12.3%
7,CCOc1ccccc1CNS(=O)(=O)c1ccc(-c2cnc(C3CC3)o2)cc1,-18.7%
8,Cc1ccc(C)c(NC(=S)N2CCCCCC2)c1,0.578%
9,COc1cc(C2(c3ccc(O)c(OC)c3)C(=O)N(C)c3ccc(C)cc32)ccc1O,-19%
10,COc1ccc(OC2C(=O)N(c3cc(C)ccc3C)C2c2ccc(OC)c(OC)c2)cc1 (centres unmarked),13.7%
11,Cc1cc(C#N)c(C)n1-c1cc(C(F)(F)F)ccc1N1CCOCC1,-21.6%
12,NC(=NCCc1ccccc1)NS(=O)(=O)c1ccccc1,9.55%
13,Cc1nnc(NC(=O)c2cccc(S(=O)(=O)N(C)c3cccc(Cl)c3)c2)s1,-10.7%
14,COc1ccc(OC)c(NC(=O)CCC(=O)Oc2ccc(C)cc2)c1,10.5%
15,Cc1ccc(-n2nc3c(=O)n(CC(=O)NCCc4ccc(Cl)cc4)nc(C)c3c2C)cc1,-10.2%
16,Cc1cc(C)n(-c2nc3ccccc3c(=O)n2OCC(=O)N(C)C)n1,7.66%
17,CCn1c(=O)c([N+](=O)[O-])c(NCc2ccc3c(c2)OCO3)c2ccccc21,-3.96%
18,COc1ccc(/C(C)=N/NC(=O)c2ccc(CSc3nncn3C)cc2)cc1,-6.17%
19,CC(C)CNC(=O)C(=O)NCc1ccccc1,5.82%

row,Compound,"hERG current change (%, negative = inhibition) at 10uM"
1,CCOC(=O)C/C(C)=N/NC(=O)CNc1cccc(Cl)c1C,-2.85%
2,Cc1cccc(OCC(=O)Nc2ccc(S(=O)(=O)N3CCCC3)cc2)c1,-14.4%
3,CC(=O)Nc1ccccc1C(=O)N1CCc2ccccc21,11.3%
4,N#CCCN1CCN(S(=O)(=O)c2ccc(S(=O)(=O)N3CCOCC3)cc2)CC1,0.386%
5,O=C(CSc1nnc(-c2ccccc2)n1Cc1ccccc1)NC1CC1,-49.4%
6,Cc1ccc([N+](=O)[O-])cc1-c1ccc2cccc(C)c2n1,0.254%
7,Cc1ccc(S(=O)(=O)N2CCC(C(=O)Nc3ccc(S(=O)(=O)N4CCCC4)cc3)CC2)cc1C,-4.77%
8,CC(C)(C)NC(=O)/C(=C\c1ccco1)NC(=O)c1cccs1,-9.06%
9,COc1ccc(NC(=O)C2CSC(C)(C)N2C=O)cc1 (centres unmarked),4.83%
10,Cc1ccc(CN2CCCC(C(=O)c3sccc3C)C2)o1 (centres unmarked),-11%
11,COc1ccc(CN2CCNC(=O)C2CC(=O)N2CCCO2)c(OC)c1 (centres unmarked),14.2%
12,C/C(=N\NC(=O)CCc1c[nH]c2ccccc12)c1cccc([N+](=O)[O-])c1,6.1%
13,O=C(Cc1ccc(Cl)cc1)SCc1ccccc1,11.3%
14,CNCC[C@H](Oc1cccc2ccccc12)c1cccs1,-37.8%
15,CCn1cc(C(=O)OCC(=O)N(C)C2CCS(=O)(=O)C2)c(=O)c2ccc(C)nc21 (centres unmarked),-14%
16,O=C(NCC(=O)N1CCCCC1)c1sc2ccccc2c1Cl,-30.9%
17,O=C(COC(=O)c1ccccc1Sc1ccc(C(F)(F)F)cc1[N+](=O)[O-])NC(=O)NC1CCCC1,4.95%
18,CC(=O)/C=C(\C)Nc1ccccc1O,21.3%
19,O=S(=O)(Oc1ccc(Cl)cc1)c1cccc2cccnc12,-32.4%

row,Compound,"hERG current change (%, negative = inhibition) at 10uM"
1,COCCCn1c(C)csc1=Nc1cccnc1,4.68%
2,O=C1Nc2ccccc2C(O)(C(=O)NCc2ccco2)N1c1ccc(Cl)cc1 (centres unmarked),2.7%
3,O=C(CCC(=O)c1ccccc1)Nc1ccccc1OC(F)F,8.02%
4,Cc1sc2nc(C)n(/N=C/c3ccc(O)cc3)c(=O)c2c1C,-7.05%
5,CN(C)S(=O)(=O)c1ccc(C(=O)OCC2COC(C)(C)O2)cc1 (centres unmarked),15.7%
6,CCOC(=O)c1[nH]c(=O)[nH]c1CSc1nc(C)cc(C)n1,1.9%
7,O=C(COC(=O)[C@@H]1CCCN1S(=O)(=O)c1ccccc1F)NCc1ccc2c(c1)OCO2,-7.58%
8,CN(C)CCOC(C1CCCCC1)C1CCCCC1.Cl,-20.2%
9,COc1ccc(N(CC(=O)N2CCc3ccccc32)S(=O)(=O)c2c(C)nn(C)c2C)cc1,6.68%
10,C=C(C)COc1ccc(-c2nc(N)ncc2Oc2ccc(OC)cc2)c(O)c1,-3.75%
11,CCCCC1=CC2=C(c3ccco3)C(=O)C(C)(OC(=O)c3ccc(OC)cc3)C(=O)C2=CN1Cc1ccco1 (centres unmarked),-7.52%
12,COc1ccc(CC2(CO)CCN(Cc3cnn(C)c3C)CC2)cc1,-21.6%
13,CCC(C)(C)n1nnnc1C(c1cc2cc(OC)ccc2[nH]c1=O)N1CCc2ccccc21 (centres unmarked),-1.46%
14,Nn1c(SCc2ccccc2F)nnc1-c1ccccn1,3.58%
15,CCN(CC)c1ccc(C(=O)OCC(=O)N2CCCC2)cc1,7.65%
16,COc1ccc(CNC(=O)C(c2ccncc2)N(C(=O)Cc2cccs2)c2cccc(C)c2)cc1 (centres unmarked),-9.37%
17,CC(C)CCNC(=O)C(=O)NCc1ccccc1,8.32%
18,CCOC(=O)CSc1nc2ccccc2c(=O)n1C,10.1%
